Reference: PubChem BioAssay AID1346428 (National Center for Advancing Translational Sciences (NCATS), 2018)
The whole screen tested about 48,000 compounds, of which about 1,200 (2.5%) were called active. Roughly 2% stayed inconclusive and do not appear here.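 How the source made its calls: active means activation of at least 60% and not above a set upper limit (about 1 call in 100 departs from these limits); inconclusive means activation of 40% to 60%, or above that upper limit; inactive means activation under 40%.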 Some of the results follow.

The compounds below were run against Probable G-protein coupled receptor 32 (Homo sapiens) (UniProt O75388) (assay: qHTS for Agonists of Human Resolvin D1 Receptor DRV1). Settings: CHO-K1 GPR32 beta-arrestin PathHunter luminescence, 90 min; at 76.9 µM; active compounds read high; zero percent set by DMSO-only wells.
Procedure, shortened: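 Engineered CHO-K1 line co-expressing GPR32-ProLink and EA-beta-arrestin. Compound treatment lasted 90 min at 37 °C. Luminescence was recorded after 1 h with substrate at ambient temperature, relative to DMSO basal wells.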
Further: 0% is about no effect.

UniProt O75388, sequence (O75388 whole entry, looked up): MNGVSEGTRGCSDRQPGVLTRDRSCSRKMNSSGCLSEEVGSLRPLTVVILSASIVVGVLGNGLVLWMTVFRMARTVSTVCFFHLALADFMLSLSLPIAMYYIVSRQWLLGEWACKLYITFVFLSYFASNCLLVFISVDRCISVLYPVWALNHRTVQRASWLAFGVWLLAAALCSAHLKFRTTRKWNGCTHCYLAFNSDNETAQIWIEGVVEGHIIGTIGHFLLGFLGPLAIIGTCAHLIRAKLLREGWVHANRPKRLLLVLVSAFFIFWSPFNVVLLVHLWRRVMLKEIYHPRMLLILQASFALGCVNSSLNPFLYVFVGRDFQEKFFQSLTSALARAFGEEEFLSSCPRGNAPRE

activation, inactive:
CCN(Cc1ccccc1)C(=O)CN1C(=O)COc2ccc(S(=O)(=O)NC3CCCC3)cc21 -38.5%
CCOc1ccc(CNC(=O)c2ccc(CS(=O)Cc3ccc(Cl)cc3)o2)cc1 (stereo not given) -11.7%
Cc1oc(=O)oc1CN1CCN(c2cc3c(cc2F)c(=O)c(C(=O)O)c2n3C(C)S2)CC1 (stereo not given) 4.23%
CCOC(=O)CSc1nc2sc3c(c2c(=O)n1-c1ccccc1)CC(C(C)C)OC3 (stereo not given) -8.44%
CCOC(=O)c1c(S(=O)(=O)N2CCCC(C(=O)Nc3ccccn3)C2)c(C)n(C)c1C (stereo not given) 18.3%
COc1cc(CNC(=O)C2CCCCN2S(=O)(=O)c2ccc(F)cc2)cc(OC)c1OC (stereo not given) 17.6%
CCOc1ccc(C2CC(=O)Nc3cc4c(cc32)OCO4)cc1OC (stereo not given) 19.4%
COc1ccc(-c2cc(C)no2)cc1S(=O)(=O)NCc1cccs1 -15.6%
CCc1cccc(NC(=O)CN2Cc3ccccc3C2=O)c1 -7.78%
COC(=O)c1c(NC(=O)Cc2coc3cc(C)ccc23)sc2c1CCCC2 -11.6%
COc1ccc(CN2CCc3c(c(=O)n4ncc(C(=O)N5CCN(c6ccc(F)cc6)CC5)c4n3C)C2)cc1 -10%
COc1ccccc1CNC(=O)c1cccn1-c1nnc(N2CCCCC2)s1 -3.75%
CC(=O)N1CCc2c(sc3c2c(=O)n(-c2ccc(C)cc2)c(=O)n3Cc2c(F)cccc2Cl)C1 6.37%
Cc1ccc(CNC(=O)C2CCN(S(=O)(=O)c3ccc(F)cc3)CC2)cc1 -10.9%
COc1ccc(CNC(=O)c2cc(-c3ccc(OC)cc3)nc3n[nH]c(-c4cccc([N+](=O)[O-])c4)c23)cc1 -3.03%
Cc1ccc2cccc(NC(=O)COc3ccccc3Cl)c2n1 -8.56%
Cc1ccc(C)c(Cn2c(CCCNC(=O)C3CCCCC3)nc3ccccc32)c1 -18.7%
COc1cccc(C(=O)c2cn(CC(=O)NCc3ccccc3Cl)c3nc(C)ccc3c2=O)c1 12.5%
CCCOc1cccc(C2c3c(oc4ccccc4c3=O)C(=O)N2c2nncs2)c1 (stereo not given) -4.63%
Cc1ccc(-c2nc(CS(=O)CC(=O)N3CCN(c4cccc(Cl)c4)CC3)c(C)o2)cc1 (stereo not given) -11.9%
C[C@H](Cc1ccccc1)Nc1ncnc2c1ncn2[C@@H]1O[C@H](CO)[C@@H](O)[C@H]1O -12.4%
O=C(CSc1nc2ccsc2c(=O)n1Cc1ccccc1Cl)NCc1ccc(F)cc1 0.992%
CCc1ccc(-n2c(=O)c3sc4ccccc4c3n(CC(=O)N3CCCC3)c2=O)cc1 -11.4%
Cc1nc(-c2cccc(NC(=O)Nc3ccccc3C(F)(F)F)c2)no1 -5.08%
Cc1c(Cl)cccc1NC(=O)Cn1cc(C(=O)c2cccs2)c2ccccc21 3.77%
CC(C)CN(CC(C)C)S(=O)(=O)c1ccc(C(=O)Nc2sc3c(c2C(N)=O)CC(C)(C)NC3(C)C)cc1 -13.3%
O=C(Nc1c2c(nn1-c1ccc(Cl)cc1)CS(=O)(=O)C2)c1cccc(F)c1 22.5%
CCc1ccc(NC(=O)CCCc2nnc3n(CC(C)C)c(=O)c4sccc4n23)cc1 -6.11%
CC(C)c1nn2c(=O)cc(COC(=O)c3ccccc3NC(=O)COc3ccccc3)nc2s1 -24.5%
COc1ccc(-c2nc(CNS(=O)(=O)c3ccc(Br)cc3)cs2)cc1 -16.4%
COC(=O)c1ccc(C2c3c(-c4ccccc4O)n[nH]c3C(=O)N2Cc2ccncc2)cc1 (stereo not given) 5.74%
O=C(CSc1nc(-c2cccc(F)c2)[nH]c1-c1ccccc1)Nc1ccc2c(c1)OCCO2 -13.8%
Cc1cccc(OCc2ccc(-c3nc(C#N)c(NCc4cccnc4)o3)o2)c1 44.4%
CCC(=O)N1CCc2cc(OC)c(OC)cc2C1COc1ccccc1OC (stereo not given) 1.31%
CC(=O)Nc1ccc(S(=O)(=O)NCCc2cn3ccsc3n2)cc1 -4.13%
Cc1nnc(NC(=O)CSc2nccn2Cc2ccc(F)cc2)s1 18.7%
COc1cccc(N2CCN(C(=O)c3cnn(-c4ccc(C)cc4C)c3C3CCN(C(=O)OC(C)(C)C)CC3)CC2)c1 -12.8%
CC(=O)N1c2c(cc(Br)cc2S(=O)(=O)N2CCN(c3cccc(Cl)c3)CC2)CC1C (stereo not given) 11.5%
Cc1ccc(Cl)cc1NC(=O)Cn1c(=O)n(Cc2ccc(C(=O)NCc3ccc4c(c3)OCO4)cc2)c(=O)c2ccccc21 -9.51%
CCN(Cc1ccccc1)C(=O)c1cc2c(s1)-c1c(C)cccc1OC2 -16%
CC(=O)c1cccc(NS(=O)(=O)c2ccc3c(c2)NC(=O)CC(=O)N3)c1 0.41%
Cc1ccc(C)c(N2CCN(C3=C(c4ccccc4)C(=O)c4ccccc43)CC2)c1 -0.125%
O=c1c2cnn(-c3ccc(Cl)cc3)c2ncn1Cc1cccc(C(F)(F)F)c1 5.83%
COc1ccc(NC(=O)CSc2cc(-c3ccccc3)nc(C)n2)cc1 -10.6%
Cc1nn(CC(=O)Nc2ccccc2F)c(=O)c2c(C)n(-c3ccc(Cl)cc3)nc12 -20.7%
CCN1CCN(c2c(S(=O)(=O)c3ccc(C)c(C)c3)cnc3ccc(F)cc23)CC1 -23%
CCOc1ccc(-c2csc(/C(C#N)=C/c3ccc(Br)cc3)n2)cc1 -9.53%
CCCN(CCC)C(=O)Cn1c(=O)n(-c2ccc(OC)cc2)c(=O)c2ccc(C(=O)NCc3ccc(C)cc3)cc21 -7.41%
CCCn1c(NCc2ccc(N(CC)CC)cc2)nc2ccccc21 6.08%
CCS(=O)(=O)c1ncc(N(Cc2ccc(F)cc2)Cc2ccco2)c(C(=O)Nc2cc(C)ccc2C)n1 -13.6%
Cc1nc([N+](=O)[O-])cn1-c1ccc([N+](=O)[O-])cc1 0.707%
CCOC(=O)C1CCN(C(=O)CN2c3ccc(CC)cc3-c3ccccc3S2(=O)=O)CC1 -37.7%
CCC(=O)Nc1ccc2nc(SCCOc3ccc(C)cc3)sc2c1 10.1%
CN1CCN(c2nc3c(S(=O)(=O)c4ccccc4)nnn3c3ccsc23)CC1 -7.08%
Cc1ccc(-n2c(SCC(=O)Nc3cccc(C)c3)nc3c(oc4ccccc43)c2=O)cc1 -14.9%
CCOC(=O)C1CCCN(C(=O)c2ccc(-n3ccc4ccccc43)s2)C1 (stereo not given) 2.63%
CO[C@@H]1[C@@H](O[C@@H]2O[C@H](C)[C@@H](O[C@H]3C[C@@](C)(O)[C@@H](O)[C@H](C)O3)[C@H](N(C)C)[C@H]2O)[C@@H](CC=O)C[C@@H](C)[C@@H](O[C@@H]2CC[C@H](N(C)C)[C@@H](C)O2)/C=C/C=C/C[C@@H](C)OC(=O)C[C@H]1OC(C)=O -10.4%
COc1cccc(-c2ccc3c(N)c(C(=O)Nc4cc(F)ccc4F)sc3n2)c1 1.31%
Cc1cc(OI)c(C(C)C)cc1-c1cc(C(C)C)c(OI)cc1C 18.4%
COc1cccc(CNCCSc2nnnn2C)c1OCc1ccccc1F 30.3%
CCCCOC(=O)c1cccc(NC(=O)c2cc3ccccc3o2)c1 19.2%
CCOc1ccc(C(=O)Nc2cccc(OCc3cc(=O)n4cc(C)sc4n3)c2)cc1 24.3%
O=C(Nc1ccc(Cl)cc1F)c1cc(S(=O)(=O)NCc2ccc3c(c2)OCO3)ccc1F 16%
CCc1ccc2oc(C(=O)Nc3sc4c(c3C(=O)NC)CCCC4)cc(=O)c2c1 0.439%
O=C(NCCc1ccccc1)c1ccc(CSc2nc3ccncc3n2Cc2ccc(F)cc2)cc1 -15.5%
CCCCn1cc(S(=O)(=O)c2cccc(C)c2)c(=O)c2cc(F)c(N3CCOCC3)cc21 -7.65%
CN(C)CCn1c2c(c(SCC(=O)Nc3ccc(F)cc3F)nc1=O)CCC2 -5.47%
Cc1ccccc1OC(=O)CSc1nnc(-c2cccs2)o1 -4.28%
CCOC(=O)c1c(S(=O)(=O)N2CCCC(C(=O)N3CCN(c4ccccc4)CC3)C2)c(C)n(C)c1C (stereo not given) -0.185%
Cc1ccc(C)c(Cn2nc(-c3cc(C)ccc3C)ccc2=O)c1 27.9%
O=[N+]([O-])c1ccc(C(c2sc3nc(-c4ccco4)nn3c2O)N2CCN(c3cccc(Cl)c3)CC2)cc1 (stereo not given) -21.2%
CCOC(=O)c1cc2c(=O)n3ccccc3nc2n(CC2CCCO2)c1=NC(=O)c1ccc(C)cc1 (stereo not given) -13.5%
COc1cccc(N2CC(NC(=O)c3ccc(S(=O)(=O)N4CCCCC4)cc3)CC2=O)c1 (stereo not given) -5.2%
CCOc1ccc(S(=O)(=O)NCC(c2ccco2)S(=O)(=O)c2ccc(F)cc2)cc1 (stereo not given) -24.5%
COc1ccc(-c2nc3ccccc3o2)cc1NC(=O)COc1ccc(C(C)(C)C)cc1 -14.8%
Cc1ccc(CN2C(=O)C3(c4ccccc42)N(c2cccc(C(F)(F)F)c2)C(=O)CS3(=O)=O)cc1 (stereo not given) -25.1%
CCc1cccc(NC(=O)Cn2nc(-c3cc(C)ccc3C)ccc2=O)c1 12.2%
N=C(N=C(N)N)N1CCOCC1 -2.31%
Cc1nnc(NCc2ccccc2)c2c1nnn2Cc1ccc(F)cc1 -3.26%
CC(Oc1ccccc1Cl)C(=O)N1CCN(CCc2ccccn2)CC1 (stereo not given) 11.1%
